Measured values as given in publication PMC5892938.
The other results are listed elsewhere or left out. At the low end of the ranking, values are background and their order means little.

These sequences were tested against GST-SBP-SLBP (stem-loop binding protein) (UniProt Q14493) (assay: targeted RNA Bind-n-Seq). Details: RBNS binding buffer: 25 mM Tris pH 7.5, 150 mM KCl, 3 mM MgCl2, 0.1% Tween, 0.5 mg/mL BSA, 1 mM DTT; 27 nM protein, 750 pM RNA pool; temperature not stated; high values mean tight binding.
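Also: DESeq read counts versus GST-SBP nonspecific binding control pulldown.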

**Q.** Which binding signal (log2 fold change) does the source give for “GGUCACGUCUCAAUCAACUCAAUAGAGGGGGGGAAAACCCCUUUGCCCUCAAAAUCAACAGCUCGCAGUCAAG” here?
**A.** -0.134

**Q.** “GGUCACGUCUCAAUCAACUCUAUAGAGGGGGGGAAAACCCCUUUACCCUCGUCCUCAACAGCUCGCAGUCAAG” was tested. Which binding signal (log2 fold change) did it give?
**A.** -0.378

**Q.** How did the binding signal (log2 fold change) turn out when “GGUCACGUCUCAAUCAACUCAUGUCCAGGAGUUUUCUCCUGUAAAUUCAACAGCUCGCAGUCAAG” was run?
**A.** -0.0987

**Q.** With “GGUCACGUCUCAAUCAACUCAAUCUCCAGGGAAAACCCUGGCAUAUUCAACAGCUCGCAGUCAAG” as the sequence, how does the binding signal (log2 fold change) read?
**A.** 0.0278

**Q.** “GGUCACGUCUCAAUCAACUCUAUUUCCAGGGAAAGCCCUGGUUUUUUCAACAGCUCGCAGUCAAG” was tested. Which binding signal (log2 fold change) did it give?
**A.** -0.313

**Q.** With “GGUCACGUCUCAAUCAACUCAAUCUCAGGAGUUUUCUCCUGCAUUUUCAACAGCUCGCAGUCAAG” as the sequence, how does the binding signal (log2 fold change) read?
**A.** 0.0346

**Q.** “GGUCACGUCUCAAUCAACUCACAAGAGGGGGGGAAAACCCCUUUGCCCUCAAUAUCAACAGCUCGCAGUCAAG” was tested. Which binding signal (log2 fold change) did it give?
**A.** -0.158

**Q.** How did the binding signal (log2 fold change) turn out when “GGUCACGUCUCAAUCAACUCAUCUCCCAGGGAAACCCCUGGUAAAUUCAACAGCUCGCAGUCAAG” was run?
**A.** -0.11

**Q.** For “GGUCACGUCUCAAUCAACUCUUCGUCCAGGGAAAGCCCUGGUUUAUUCAACAGCUCGCAGUCAAG”, which binding signal (log2 fold change) is on record?
**A.** 0.0572

**Q.** For “GGUCACGUCUCAAUCAACUCAUCCCCCAGGGAAACCCCUGGUAAACUCAACAGCUCGCAGUCAAG”, which binding signal (log2 fold change) is on record?
**A.** -0.13

**Q.** With “GGUCACGUCUCAAUCAACUCAUCUUCCAGGGAAACCCCUGGUUUACUCAACAGCUCGCAGUCAAG” as the sequence, how does the binding signal (log2 fold change) read?
**A.** -0.00345

**Q.** Which binding signal (log2 fold change) does the source give for “GGUCACGUCUCAAUCAACUCUUUUUCAGGAGUUUCCUCCUGUUAUUUCAACAGCUCGCAGUCAAG” here?
**A.** 0.0402

**Q.** For “GGUCACGUCUCAAUCAACUCUUUCUCAGGAGUUUCCUCCUGCAUAUUCAACAGCUCGCAGUCAAG”, which binding signal (log2 fold change) is on record?
**A.** 0.0393

**Q.** For “GGUCACGUCUCAAUCAACUCUUUCCCCAGGGAAACCCCUGGUAAUGUCAACAGCUCGCAGUCAAG”, which binding signal (log2 fold change) is on record?
**A.** -0.0368

**Q.** With “GGUCACGUCUCAAUCAACUCUUCUUCCAGGGAAAACCCUGGCUAAUUCAACAGCUCGCAGUCAAG” as the sequence, how does the binding signal (log2 fold change) read?
**A.** 0.193

**Q.** For “GGUCACGUCUCAAUCAACUCUUUCUCAGGAGUUUUCUCCUGUUUUCUCAACAGCUCGCAGUCAAG”, which binding signal (log2 fold change) is on record?
**A.** -0.0748

**Q.** How did the binding signal (log2 fold change) turn out when “GGUCACGUCUCAAUCAACUCUACUCCCAGGGAAAGCCCUGGCAAUGUCAACAGCUCGCAGUCAAG” was run?
**A.** 0.0158

**Q.** With “GGUCACGUCUCAAUCAACUCUUCUUCCAGGGAAAACCCUGGUUUAUUCAACAGCUCGCAGUCAAG” as the sequence, how does the binding signal (log2 fold change) read?
**A.** -0.0265

**Q.** With “GGUCACGUCUCAAUCAACUCAUCCCCCAGGGAAAACCCUGGUAUACUCAACAGCUCGCAGUCAAG” as the sequence, how does the binding signal (log2 fold change) read?
**A.** 0.0596

**Q.** For “GGUCACGUCUCAAUCAACUCCAAAGAGGGGGGGAAAACCCCUUUGCCCUCACAAUCAACAGCUCGCAGUCAAG”, which binding signal (log2 fold change) is on record?
**A.** 0.159

**Q.** For “GGUCACGUCUCAAUCAACUCAUCCCCAGGAGUUUUCUCCUGUUAUCUCAACAGCUCGCAGUCAAG”, which binding signal (log2 fold change) is on record?
**A.** 0.131

**Q.** “GGUCACGUCUCAAUCAACUCUUCUCCCAGGGAAAACCCUGGUAUUCUCAACAGCUCGCAGUCAAG” was tested. Which binding signal (log2 fold change) did it give?
**A.** 0.000775

**Q.** Which binding signal (log2 fold change) does the source give for “GGUCACGUCUCAAUCAACUCAUUCCCAGGAGUUUCCUCCUGCUAUUUCAACAGCUCGCAGUCAAG” here?
**A.** -0.138

**Q.** With “GGUCACGUCUCAAUCAACUCAAUAGAGGGGGGGAAAACCCCUUUACCCUCAUCGUCAACAGCUCGCAGUCAAG” as the sequence, how does the binding signal (log2 fold change) read?
**A.** -0.0795

**Q.** How did the binding signal (log2 fold change) turn out when “GGUCACGUCUCAAUCAACUCUUCCCCCAGGGAAAUCCCUGGCAUACUCAACAGCUCGCAGUCAAG” was run?
**A.** 0.114

**Q.** Which binding signal (log2 fold change) does the source give for “GGUCACGUCUCAAUCAACUCAAGUCCAGGAGUUUUCUCCUGCUUAUUCAACAGCUCGCAGUCAAG” here?
**A.** -0.187

**Q.** Which binding signal (log2 fold change) does the source give for “GGUCACGUCUCAAUCAACUCAUUCGAGGGGGGGAAAACCCCUUUACCCUCAUUUUCAACAGCUCGCAGUCAAG” here?
**A.** -0.131

**Q.** “GGUCACGUCUCAAUCAACUCUCUCGAGGGGGGGAAAACCCCUUUACCCUCAAAAUCAACAGCUCGCAGUCAAG” was tested. Which binding signal (log2 fold change) did it give?
**A.** -0.0387

**Q.** Which binding signal (log2 fold change) does the source give for “GGUCACGUCUCAAUCAACUCCCUAGAGGGGGGGAAAACCCCUUUACCCUCCACGUCAACAGCUCGCAGUCAAG” here?
**A.** 0.14

**Q.** For “GGUCACGUCUCAAUCAACUCAUCCUCCAGGGAAAACCCUGGUUAUUUCAACAGCUCGCAGUCAAG”, which binding signal (log2 fold change) is on record?
**A.** 0.0965

**Q.** With “GGUCACGUCUCAAUCAACUCUAAAGAGGGGGGGAAAACCCCUUUUCCCUCAUAAUCAACAGCUCGCAGUCAAG” as the sequence, how does the binding signal (log2 fold change) read?
**A.** 0.0899

**Q.** With “GGUCACGUCUCAAUCAACUCAUUCUCCAGGGAAAACCCUGGCAUUCUCAACAGCUCGCAGUCAAG” as the sequence, how does the binding signal (log2 fold change) read?
**A.** -0.171

**Q.** “GGUCACGUCUCAAUCAACUCUAUCCCCAGGGAAAUCCCUGGCAUUCUCAACAGCUCGCAGUCAAG” was tested. Which binding signal (log2 fold change) did it give?
**A.** -0.228

**Q.** With “GGUCACGUCUCAAUCAACUCAAUCCCAGGAGUUUUCUCCUGUAAUGUCAACAGCUCGCAGUCAAG” as the sequence, how does the binding signal (log2 fold change) read?
**A.** -0.215

**Q.** For “GGUCACGUCUCAAUCAACUCAAUUCCAGGAGUUUUCUCCUGCAUAUUCAACAGCUCGCAGUCAAG”, which binding signal (log2 fold change) is on record?
**A.** 0.128

**Q.** “GGUCACGUCUCAAUCAACUCUUUUCCCAGGGAAAUCCCUGGCUAUUUCAACAGCUCGCAGUCAAG” was tested. Which binding signal (log2 fold change) did it give?
**A.** -0.0809

**Q.** Which binding signal (log2 fold change) does the source give for “GGUCACGUCUCAAUCAACUCUAUCUCAGGAGUUUCCUCCUGUAUACUCAACAGCUCGCAGUCAAG” here?
**A.** 0.138
